Measured values reported in article PMC5892938.
This is one part of the list. At the low end of the ranking the order means little.

Molecular target: GST-SBP-SLBP (stem-loop binding protein) (UniProt Q14493)
Experiment: targeted RNA Bind-n-Seq;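 note: DESeq read counts versus GST-SBP nonspecific binding control pulldown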
Conditions: RBNS binding buffer: 25 mM Tris pH 7.5, 150 mM KCl, 3 mM MgCl2, 0.1% Tween, 0.5 mg/mL BSA, 1 mM DTT; 27 nM protein, 750 pM RNA pool; temperature not stated; high values mean tight binding

Sequence | binding signal (log2 fold change)
GGUCACGUCUCAAUCAACUCUCCGGAGGGGGGGAAAACCCCUUUACCCUCAAUUUCAACAGCUCGCAGUCAAG | -0.221
GGUCACGUCUCAAUCAACUCUAUCUCCAGGGAAAUCCCUGGCAUGUUCAACAGCUCGCAGUCAAG | -0.0829
GGUCACGUCUCAAUCAACUCAACUUCCAGGGAAAGCCCUGGCAAUUUCAACAGCUCGCAGUCAAG | -0.0704
GGUCACGUCUCAAUCAACUCUUCUUCCAGGGAAAGCCCUGGCUUUCUCAACAGCUCGCAGUCAAG | -0.0891
GGUCACGUCUCAAUCAACUCAAUUUCCAGGGAAAACCCUGGUUUAUUCAACAGCUCGCAGUCAAG | -0.134
GGUCACGUCUCAAUCAACUCCACGGAGGGGGGGAAAACCCCUUUACCCUCAAUCUCAACAGCUCGCAGUCAAG | 0.0204
GGUCACGUCUCAAUCAACUCUACUUCCAGGGAAAUCCCUGGCAAACUCAACAGCUCGCAGUCAAG | 0.161
GGUCACGUCUCAAUCAACUCUUCUUCCAGGGAAAACCCUGGUAUAUUCAACAGCUCGCAGUCAAG | -0.108
GGUCACGUCUCAAUCAACUCAAGUCCAGGAGUUUUCUCCUGCAAAGUCAACAGCUCGCAGUCAAG | 0.447
GGUCACGUCUCAAUCAACUCUUUCCCCAGGGAAAUCCCUGGCUAACUCAACAGCUCGCAGUCAAG | -0.0143
GGUCACGUCUCAAUCAACUCUUCCUCAGGAGUUUUCUCCUGUUAUCUCAACAGCUCGCAGUCAAG | -0.0216
GGUCACGUCUCAAUCAACUCUAAAGAGGGGGGGAAAACCCCUUUACCCUCCACAUCAACAGCUCGCAGUCAAG | 0.0526
GGUCACGUCUCAAUCAACUCUUUAGAGGGGGGGAAAACCCCUUUACCCUCAACUUCAACAGCUCGCAGUCAAG | -0.273
GGUCACGUCUCAAUCAACUCCCUAGAGGGGGGGAAAACCCCUUUACCCUCCGUAUCAACAGCUCGCAGUCAAG | 0.0636
GGUCACGUCUCAAUCAACUCUUCCCCAGGAGUUUCCUCCUGUUAAUUCAACAGCUCGCAGUCAAG | 0.0064
GGUCACGUCUCAAUCAACUCAUCCUCAGGAGUUUUCUCCUGUAUACUCAACAGCUCGCAGUCAAG | 0.0577
GGUCACGUCUCAAUCAACUCCUUAGAGGGGGGGAAAACCCCUUUGCCCUCAAAAUCAACAGCUCGCAGUCAAG | -0.0247
GGUCACGUCUCAAUCAACUCAACUUCCAGGGAAAUCCCUGGCAUUUUCAACAGCUCGCAGUCAAG | -0.319
GGUCACGUCUCAAUCAACUCUUUUUCCAGGGAAAACCCUGGCAUGUUCAACAGCUCGCAGUCAAG | 0.34
GGUCACGUCUCAAUCAACUCUACUUCAGGAGUUUUCUCCUGUUUAUUCAACAGCUCGCAGUCAAG | -0.101
GGUCACGUCUCAAUCAACUCAACUUCCAGGGAAAACCCUGGUAUUUUCAACAGCUCGCAGUCAAG | -0.108
GGUCACGUCUCAAUCAACUCUAUCCCAGGAGUUUCCUCCUGUUAUUUCAACAGCUCGCAGUCAAG | 0.135
GGUCACGUCUCAAUCAACUCUUCGUCCAGGGAAACCCCUGGCUUUUUCAACAGCUCGCAGUCAAG | -0.111
GGUCACGUCUCAAUCAACUCAUUUUCCAGGGAAAUCCCUGGUUUUCUCAACAGCUCGCAGUCAAG | 0.165

Sequence | binding signal (log2 fold change)
GGUCACGUCUCAAUCAACUCUUUCCCCAGGGAAACCCCUGGUUAUCUCAACAGCUCGCAGUCAAG | 0.128
GGUCACGUCUCAAUCAACUCUAUCUCCAGGGAAACCCCUGGUAAUCUCAACAGCUCGCAGUCAAG | -0.0998
GGUCACGUCUCAAUCAACUCUAUUUCCAGGGAAAACCCUGGCUAAUUCAACAGCUCGCAGUCAAG | -0.116
GGUCACGUCUCAAUCAACUCAAUCUCAGGAGUUUUCUCCUGCUUACUCAACAGCUCGCAGUCAAG | 0.114
GGUCACGUCUCAAUCAACUCAUCUUCAGGAGUUUACUCCUGCAAAUUCAACAGCUCGCAGUCAAG | -0.0112
GGUCACGUCUCAAUCAACUCUACUUCCAGGGAAAUCCCUGGCAAAUUCAACAGCUCGCAGUCAAG | -0.0875
GGUCACGUCUCAAUCAACUCAUCGUCAGGAGUUUUCUCCUGCUUUCUCAACAGCUCGCAGUCAAG | -0.0736
GGUCACGUCUCAAUCAACUCUUCGCCAGGAGUUUUCUCCUGCUAAUUCAACAGCUCGCAGUCAAG | -0.0828
GGUCACGUCUCAAUCAACUCCACAGAGGGGGGGAAAACCCCUUUACCCUCCAUUUCAACAGCUCGCAGUCAAG | -0.584
GGUCACGUCUCAAUCAACUCUCCCGAGGGGGGGAAAACCCCUUUACCCUCUAUAUCAACAGCUCGCAGUCAAG | -0.352
GGUCACGUCUCAAUCAACUCCAUAGAGGGGGGGAAAACCCCUUUACCCUCAACAUCAACAGCUCGCAGUCAAG | -0.00421
GGUCACGUCUCAAUCAACUCAAUCCCCAGGGAAAUCCCUGGCUUUCUCAACAGCUCGCAGUCAAG | 0.15
GGUCACGUCUCAAUCAACUCAUUUUCCAGGGAAAACCCUGGUUUACUCAACAGCUCGCAGUCAAG | 0.0824
GGUCACGUCUCAAUCAACUCUACUUCAGGAGUUUGCUCCUGCAUUUUCAACAGCUCGCAGUCAAG | 0.125
GGUCACGUCUCAAUCAACUCUCCCGAGGGGGGGAAAACCCCUUUACCCUCACCAUCAACAGCUCGCAGUCAAG | -0.0296
GGUCACGUCUCAAUCAACUCUUCCUCCAGGGAAACCCCUGGUAUAUUCAACAGCUCGCAGUCAAG | -0.0262
GGUCACGUCUCAAUCAACUCAUCUCCAGGAGUUUGCUCCUGUAAUCUCAACAGCUCGCAGUCAAG | 0.0533
GGUCACGUCUCAAUCAACUCUAUGGAGGGGGGGAAAACCCCUUUACCCUCAACAUCAACAGCUCGCAGUCAAG | 0.0463
GGUCACGUCUCAAUCAACUCUAUCUCCAGGGAAAGCCCUGGCAAACUCAACAGCUCGCAGUCAAG | -0.192
GGUCACGUCUCAAUCAACUCUCCAGAGGGGGGGAAAACCCCUUUACCCUCCAAUUCAACAGCUCGCAGUCAAG | 0.249
GGUCACGUCUCAAUCAACUCUUUCUCAGGAGUUUUCUCCUGCUAUCUCAACAGCUCGCAGUCAAG | 0.0715
GGUCACGUCUCAAUCAACUCAAUUCCAGGAGUUUACUCCUGUUUAUUCAACAGCUCGCAGUCAAG | -0.145
GGUCACGUCUCAAUCAACUCUCACGAGGGGGGGAAAACCCCUUUACCCUCCAAUUCAACAGCUCGCAGUCAAG | -0.5
